Data reported in article PMC5895705, “Activation of the DnaK-ClpB Complex is Regulated by the Properties of the Bound Substrate” (Scientific Reports, 2018).

Target: T1, ClpB, wild type (E. coli, UniProt P63284 1-857)
T1 construct: ClpB, E. coli, wild type; also called wt ClpB; wt-ClpB; source: E. coli BB4561, purified as previously described
Experiment: co-sedimentation; G6PDH50 aggregates (1 μM) incubated 10 min at 30 °C in refolding buffer with DnaJ, 3.5 μM wt DnaK or variant, with or without 5 μM wt or mutant ClpB, 3 mM ATP with regenerating system, no GrpE; 122,000 x g, 40 min, 4 °C; pellets on SDS-PAGE or NuPAGE, densitometry, controls with native G6PDH subtracted
Conditions: both partners purified

binding result: binds
B1: DnaK_(D526A) (natural protein)
chain: not shown
notes: DnaK, E. coli, with D526A (hinge of the lid)
